# Publication PMC9911399, “Two distinct binding modes provide the RNA-binding protein RbFox with extraordinary sequence specificity”
# Substitutions are numbered along the chain they refer to; changes in the protein carry UniProt numbers. The list shows a part of the results.
# T1: RBFOX1 RRM RbFoxmut (Fox-RRM*) (Homo sapiens, UniProt Q9NWB1 109-208, R118D;E147R;N151S;E152T)
# T1 sequence: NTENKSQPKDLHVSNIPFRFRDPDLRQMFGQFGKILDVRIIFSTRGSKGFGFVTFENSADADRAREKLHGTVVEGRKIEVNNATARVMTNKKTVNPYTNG
# B1: GAUAGAG (DNA:RNA)
# RNA: GGGAGACCGGAAUUCAGAUUGUCCGAUAGAGUUAAAUCCCGUCGUAGCCACCA
# DNA 1: CAATCTGAATTCCGGTCTCCC
# DNA 2: TGGTGGCTACGACGGGATT
# B2: UCGUAAA (DNA:RNA)
# RNA: B1 RNA with G25U, A26C, U27G, A28U, G29A, G31A
# DNA 1: CAATCTGAATTCCGGTCTCCC
# DNA 2: TGGTGGCTACGACGGGATT
# B3: ACUCAUU (DNA:RNA)
# RNA: B1 RNA with G25A, A26C, A28C, G29A, A30U, G31U
# DNA 1: CAATCTGAATTCCGGTCTCCC
# DNA 2: TGGTGGCTACGACGGGATT
# B4: CUCCUAC (DNA:RNA)
# RNA: B1 RNA with G25C, A26U, U27C, A28C, G29U, G31C
# DNA 1: CAATCTGAATTCCGGTCTCCC
# DNA 2: TGGTGGCTACGACGGGATT
# B5: CCACAAA (DNA:RNA)
# RNA: B1 RNA with G25C, A26C, U27A, A28C, G29A, G31A
# DNA 1: CAATCTGAATTCCGGTCTCCC
# DNA 2: TGGTGGCTACGACGGGATT
# B6: AUUUCCG (DNA:RNA)
# RNA: B1 RNA with G25A, A26U, A28U, G29C, A30C
# DNA 1: CAATCTGAATTCCGGTCTCCC
# DNA 2: TGGTGGCTACGACGGGATT
# B7: GCACGAA (DNA:RNA)
# RNA: B1 RNA with A26C, U27A, A28C, G31A
# DNA 1: CAATCTGAATTCCGGTCTCCC
# DNA 2: TGGTGGCTACGACGGGATT
# B8: GUCCAUC (DNA:RNA)
# RNA: B1 RNA with A26U, U27C, A28C, G29A, A30U, G31C
# DNA 1: CAATCTGAATTCCGGTCTCCC
# DNA 2: TGGTGGCTACGACGGGATT
# B9: UUCCACA (DNA:RNA)
# RNA: GGGAGACCGGAAUUCAGAUUGUCCUUCCACAUUAAAUCCCGUCGUAGCCACCA
# DNA 1: CAATCTGAATTCCGGTCTCCC
# DNA 2: TGGTGGCTACGACGGGATT
# B10: UCUAUUA (DNA:RNA)
# RNA: B1 RNA with G25U, A26C, G29U, A30U, G31A
# DNA 1: CAATCTGAATTCCGGTCTCCC
# DNA 2: TGGTGGCTACGACGGGATT
# B11: AGGACAA (DNA:RNA)
# RNA: B1 RNA with G25A, A26G, U27G, G29C, G31A
# DNA 1: CAATCTGAATTCCGGTCTCCC
# DNA 2: TGGTGGCTACGACGGGATT
# B12: CCCGGAA (DNA:RNA)
# RNA: B1 RNA with G25C, A26C, U27C, A28G, G31A
# DNA 1: CAATCTGAATTCCGGTCTCCC
# DNA 2: TGGTGGCTACGACGGGATT
# B13: ACCAGUA (DNA:RNA)
# RNA: B1 RNA with G25A, A26C, U27C, A30U, G31A
# DNA 1: CAATCTGAATTCCGGTCTCCC
# DNA 2: TGGTGGCTACGACGGGATT
# B14: UGCCCCU (DNA:RNA)
# RNA: B9 RNA with U26G, A29C, A31U
# DNA 1: CAATCTGAATTCCGGTCTCCC
# DNA 2: TGGTGGCTACGACGGGATT
# B15: GAUGUUC (DNA:RNA)
# RNA: B1 RNA with A28G, G29U, A30U, G31C
# DNA 1: CAATCTGAATTCCGGTCTCCC
# DNA 2: TGGTGGCTACGACGGGATT
# B16: AAUAACA (DNA:RNA)
# RNA: B1 RNA with G25A, G29A, A30C, G31A
# DNA 1: CAATCTGAATTCCGGTCTCCC
# DNA 2: TGGTGGCTACGACGGGATT
# B17: UCGAGUA (DNA:RNA)
# RNA: B1 RNA with G25U, A26C, U27G, A30U, G31A
# DNA 1: CAATCTGAATTCCGGTCTCCC
# DNA 2: TGGTGGCTACGACGGGATT
# B18: AAAACCC (DNA:RNA)
# RNA: B1 RNA with G25A, U27A, G29C, A30C, G31C
# DNA 1: CAATCTGAATTCCGGTCTCCC
# DNA 2: TGGTGGCTACGACGGGATT
# B19: CGCGCGA (DNA:RNA)
# RNA: B9 RNA with U25C, U26G, C28G, A29C, C30G
# DNA 1: CAATCTGAATTCCGGTCTCCC
# DNA 2: TGGTGGCTACGACGGGATT
# B20: GGCGGCC (DNA:RNA)
# RNA: B1 RNA with A26G, U27C, A28G, A30C, G31C
# DNA 1: CAATCTGAATTCCGGTCTCCC
# DNA 2: TGGTGGCTACGACGGGATT
# Target: T1, RBFOX1 RRM RbFoxmut (Fox-RRM*)
# Assay: EMSA; HiTS-Eq, 1 nM pool, 10 min; buffer printed only for the single-RNA assays: 10 mM Tris pH 7.5, 150 mM NaCl, 3.4 mM EDTA, 0.001% NP-40, 30 C
# Conditions: tags: His6 N-terminal (pET28a); label: 5' 32P
# Outline: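 A pool of RNA with 7 randomized nucleotides, 5′-radiolabelled and with DNA-annealed flanks, was equilibrated at 1 nM for 10 min in 50 µL with purified RbFox RRM, wild type or mutant, across increasing protein concentrations. Free RNA was separated by 8% native PAGE, excised, reverse-transcribed, barcoded by PCR and sequenced. Relative association constants were obtained from read-count changes of each RNA species versus the control reaction and normalised to the cognate motif.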
row,Binder,binding signal
1,B1,0.119 KA relative to UGCAUGU
2,B2,0.142 KA relative to UGCAUGU
3,B3,0.0769 KA relative to UGCAUGU
4,B4,0.106 KA relative to UGCAUGU
5,B5,0.0638 KA relative to UGCAUGU
6,B6,0.0706 KA relative to UGCAUGU
7,B7,0.256 KA relative to UGCAUGU
8,B8,0.0764 KA relative to UGCAUGU
9,B9,0.0981 KA relative to UGCAUGU
10,B10,0.118 KA relative to UGCAUGU
11,B11,0.0419 KA relative to UGCAUGU
12,B12,0.0792 KA relative to UGCAUGU
13,B13,0.118 KA relative to UGCAUGU
14,B14,0.0785 KA relative to UGCAUGU
15,B15,0.0893 KA relative to UGCAUGU
16,B16,0.072 KA relative to UGCAUGU
17,B17,0.16 KA relative to UGCAUGU
18,B18,0.0666 KA relative to UGCAUGU
19,B19,0.0872 KA relative to UGCAUGU
20,B20,0.16 KA relative to UGCAUGU
